Test results from patent US4758565A, “Substituted pyrimidoquinoxalines useful as anti-anaerobic agents” (G. D. Searle & Co., priority 1986, dated 1988).
Read-outs that look alike come from different tables or passages of the source.

System: B. fragilis 23745
Experiment: In vivo anti-anaerobe activity, mouse hepatic necrosis
Details: Bacteroides fragilis, 23745, in Mus musculus, po, 48 h, read-out: Dose giving 1 log reduction, p.o., immediately after infection and twice daily for 2 days
[1] = 1 log (90%) reduction of CFU/ml liver homogenate, from dose response curves
[2] = same dose in molar units, in parentheses

| Compound | ED (1 log reduction) [1] [mg/kg] | ED (1 log reduction) [2] [µmol/kg] |
| --- | --- | --- |
| CC1(C)CN=C2C(c3ccccc3)=[N+]([O-])c3cc(C(F)(F)F)ccc3N2C1 [Example 1, 2,3-Dihydro-2,2-dimethyl-5-phenyl-8-trifluoromethyl-1H-pyrimido[1,2-a]quinoxaline 6-oxide] | 2.05 | 5.5 |
| CC1(C)CN=C2C(c3ccccc3)=[N+]([O-])c3ccc(F)cc3N2C1 [Example 2, 2,3-Dihydro-2,2-dimethyl-9-fluoro-5-phenyl-1H-pyrimido [1,2-a]quinoxaline 6-oxide] | 2.7 | 8.4 |
| Cc1ccc(C2=[N+]([O-])c3cc(C(F)(F)F)ccc3N3CC(C)(C)CN=C23)cc1 [Example 3, 2,3-Dihydro-2,2-dimethyl-5-(4-methylphenyl)-8-trifluoromethyl-1H-pyrimid [1,2-a]quinoxaline 6-oxide] | 22.6 | 58 |
| CCC1(C)CN=C2C(c3ccccc3)=[N+]([O-])c3cc(C(F)(F)F)ccc3N2C1 (stereo not drawn) [Example 4, 2,3-Dihydro-2-ethyl-2-methyl-5-phenyl-8-trifluoromethyl-1H-pyrimido [1,2-a]quinoxaline 6-oxide] | 4.45 | 11.5 |
| CC1(C)CN=C2C(c3ccccc3)=[N+]([O-])c3cccc(F)c3N2C1 [Example 5, 2,3-Dihydro-2,2-dimethyl-10-fluoeo-5-phenyl-1H-pyrimido [1,2-a]quinoxaline 6-oxide] | 3.2 | 9.9 |
| Cc1ncc([N+](=O)[O-])n1CCO [Metronidazole, reference compound] | 1.9 | 11 |
